Assay results: PubChem BioAssay AID504832 (National Center for Advancing Translational Sciences (NCATS), 2011)
Screen size: about 310,000 compounds; about 18,000 (5.8%) were called active. Inconclusive results, whose numbers are uncertain, are shown with a selection of clear calls. The call rests on the fitted dose curve; in most records, active means well fitted inhibition curve with a large enough effect; inconclusive means small, poorly fitted or top-dose-only effect, or another doubt; inactive means no such curve, though single readings can be large or run the other way. Potencies of inconclusive entries are left out as doubtful fits.

assay: Primary qHTS for delayed death inhibitors of the malarial parasite plastid, 48 hour incubation; details: P. falciparum luciferase growth in erythrocytes; series mostly up to 28.7 µM; activity change, negative = inhibition: at the top concentration
Summary of the method: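 Luciferase-expressing parasites in RBCs, 2% Hct / 0.1% parasitemia final; RPMI 1640 + 0.5% Albumax; 37 C, 5% CO2, one generation; luminescence read-out, lower signal = inhibition.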
On the % scale 0 is the no-effect control and ±100 the full control effect; potency means the concentration at half of the fitted maximal effect; tags describe the fitted curve by direction and shape.

| Structure (SMILES) | Potency | activity change, negative = inhibition |
| --- | --- | --- |
| COC(=O)CCC(=O)OC1(C)C(=O)C=C2C=C(C3CC3)N(Cc3ccc4c(c3)OCO4)C=C2C1=O (stereo not drawn) | inconclusive [inhibitor, single point] |  |
| Cc1[nH]nc2c1C(c1ccccc1)C1=C(CC(C)(C)CC1=O)N2 (stereo not drawn) | inconclusive [inhibitor, single point] |  |
| COc1ccc(S(=O)(=O)N2CCCCCC2)cc1C(=O)N(C)Cc1ccc(OC)c(OC)c1OC | inconclusive [inhibitor, single point] |  |
| Cn1c(=O)cc(OCC(=O)N2CCC3(CC2)OCCO3)c2ccccc21 | inconclusive [inhibitor, single point] |  |
| C/C(NC(=O)c1ccccc1F)=C1\C(=O)C[C@@H]2[C@H]1C2(C)C |  | inactive: -4.14% |
| COc1cc2c(cc1Cl)C(=O)C(F)(c1ccccc1)C(=O)N2 (stereo not drawn) | inconclusive [inhibitor, partial curve] |  |
| O=C(O)CCC(=O)NC(c1ccccc1)c1ccccc1 |  | inactive: 29.7% |
| Cc1ccc(CCNC(=O)C2CCC(CNc3c(N4CCC(C)CC4)c(=O)c3=O)CC2)cc1 (stereo not drawn) | inconclusive [inhibitor, single point] |  |
| O=C(CCCCCN1C(=O)c2cccc3cccc(c23)C1=O)NCCO |  | inactive: -17% |
| CCn1c2ccccc2c2cc(NC(=O)c3ccc([N+](=O)[O-])cc3)ccc21 | inconclusive [inhibitor, single point] |  |
| Cc1ccc2[nH]c3c(c2c1)CN(C(=O)CN1CCN(c2cccc(C)c2C)CC1)CC3 | inconclusive [inhibitor, single point] |  |
| Cc1cc(C(=O)CCl)c(C)n1-c1cccc(S(=O)(=O)N2CCOCC2)c1 |  | inactive: -27.2% |
| O=C1CCCN2N=C(SCC(=O)Nc3ccccc3C(F)(F)F)SC2=N1 | inconclusive [inhibitor, single point] |  |
| CCN(CC)S(=O)(=O)c1ccc(N(C)Cc2cccc(OC)c2OC)nc1 | inconclusive [inhibitor, full curve, poor fit] |  |
| CC1=NN(c2ccccc2)C(=O)/C1=C\c1cn(-c2ccccc2)nc1C | inconclusive [inhibitor, single point] |  |
| O=C1CSC(c2ccccc2)N1Nc1nc(N2CCOCC2)nc(N2CCOCC2)n1 (stereo not drawn) | inconclusive [inhibitor, partial curve] |  |
| CCCC1=Nc2cc(C(=O)NCCCN3CCN(C)CC3)ccc2Sc2ccccc21 | inconclusive [inhibitor, single point] |  |
| CC1CCC(NC(=O)CCCn2sc3ccccc3c2=O)CC1 (stereo not drawn) |  | inactive: 47.6% |
| CCc1ccc2c(c1)C(=O)c1ccccc1C2=O |  | inactive: 257% |
| COc1cccc(OCCCOc2ccccc2C(C)C)c1 | inconclusive [inhibitor, partial curve, poor fit] |  |
| O=C(Nc1ccncc1Cl)c1ccncc1 |  | inactive: 13.3% |
| O=C(Nc1ccccc1)N1CCC(C(=O)N2CCCC(C(F)(F)F)C2)CC1 (stereo not drawn) | inconclusive [inhibitor, full curve, poor fit] |  |
| CC(=O)N(C(C)=O)c1nc(-c2ccccc2)cn1/N=C/c1cccc([N+](=O)[O-])c1 | inconclusive [inhibitor, single point] |  |
| O=C1CCN(CCCc2ccccc2)CCN1[C@H](CO)Cc1ccccc1 |  | inactive: 7.82% |
| O=C(COc1ccccc1Br)NC(=O)NC1CCCC1 |  | inactive: 94.3% |

| Structure (SMILES) | Potency | activity change, negative = inhibition |
| --- | --- | --- |
| COc1ccccc1/C=C/C(=O)N1CCN(S(=O)(=O)c2cc(C)ccc2C)CC1 | active: 14.7 µM |  |
| COc1ccccc1N1CCN(C(=O)C2CCN(C(=O)c3ccccc3Cl)CC2)CC1 | inconclusive [inhibitor, partial curve, poor fit] |  |
| CCNC(=S)NNC(=O)c1cccnc1 |  | inactive: -9.22% |
| CC(=O)NC[C@@H]1CN(c2ccc(N3CCOCC3)c(F)c2)C(=O)O1 |  | inactive: -0.724% |
| Nc1c(N(CCC2=CCCCC2)C(=O)COc2ccc(F)cc2)c(=O)[nH]c(=O)n1Cc1ccccc1 | inconclusive [inhibitor, single point] |  |
| c1cncc(-c2nc3ccccc3s2)c1 |  | inactive: 64% |
| Cc1cc(C(=O)N(C)CC(=O)Nc2ccc(Cl)c(C(F)(F)F)c2)no1 |  | inactive: -10.2% |
| COCCNCC(=O)Nc1nc(C)cs1 |  | inactive: 15.2% |
| CC(C)OP(=O)(c1ccc(N(C)C)cc1)C(O)c1cccnc1 (stereo not drawn) |  | inactive: -21.4% |
| O=C(NCCc1ccc(Cl)cc1)c1cc(-c2ccncc2)nc2ccccc12 | inconclusive [inhibitor, single point] |  |
| COc1ccc(CNc2cccc3[nH]c(C(F)(F)F)nc23)cc1 | active: 1.65 µM |  |
| Cc1cc(-c2ccc(C)c(S(=O)(=O)Nc3cccc(CN4CCCC4)c3)c2)on1 | inconclusive [inhibitor, single point] |  |
| O=c1c(Cl)c(O)c2cccc3c4ccccc4n1c23 |  | inactive: -18.9% |
| O=C1/C(=N\O)Cc2ccccc21 | inconclusive [inhibitor, partial curve, poor fit] |  |
| Cc1ccc(CSCCNC(=O)c2ccccc2)cc1 | inconclusive [inhibitor, partial curve, poor fit] |  |
| Cc1ccc(NC2CCCN(C(=O)c3cccc4nccnc34)C2)cc1C (stereo not drawn) |  | inactive: -15.1% |
| C/C=C\C(=O)Nc1cccc(C2=NOC3(C2)C[C@@H](C(N)=O)N(C(=O)COc2ccc(Cl)cc2)C3)c1 (stereo partly drawn) | inconclusive [inhibitor, partial curve, poor fit] |  |
| Cc1ccnc(NC(=O)CN2C(=O)NC(C)(c3ccc4ccccc4c3)C2=O)c1 (stereo not drawn) | inconclusive [inhibitor, partial curve, poor fit] |  |
| CN1C(=O)c2ccccc2Sc2ccc(NC(=O)N3CCOCC3)cc21 | inconclusive [inhibitor, single point] |  |
| COC1=C(OC)c2ccccc2C(C(=O)O)N/C1=C(/C)Nc1ccncc1 (stereo not drawn) | inconclusive [inhibitor, partial curve, poor fit] |  |
| CCCn1c(SCC(=O)Nc2ccccc2Cl)n[nH]c1=O | inconclusive [inhibitor, single point] |  |
| O=C(Cc1ccccc1)NCC(=O)N/N=C/c1ccc(C(=O)O)cc1 |  | inactive: 0.738% |
| COc1cccc(NC(=O)Cn2cnc3c(oc4nc5c(cc43)CCCC5)c2=O)c1 |  | inactive: 2.84% |
| CC(=O)Nc1ccc(NC(=O)CSc2ccc(-c3cccnc3)nn2)cc1 | inconclusive [inhibitor, single point] |  |
| Cn1cc(/C=N/Nc2ccccc2)c2ccccc21 | inconclusive [inhibitor, full curve, poor fit] |  |

| Structure (SMILES) | Potency | activity change, negative = inhibition |
| --- | --- | --- |
| COc1ccc(OCc2cc(C(=O)NCCc3ccccc3)no2)c(Cl)c1 |  | inactive: 20.4% |
| COC(=O)C1=CN(Cc2ccc(OC)cc2)C=C(C(=O)OC)C1c1ccc(O)c(OC)c1 | inconclusive [inhibitor, partial curve] |  |
| NC(=O)c1ccc(NC(=O)Cc2cccs2)cc1 |  | inactive: -12.8% |
| O=C(N/N=C1\CCCc2ccccc21)c1ccccc1Cl |  | inactive: 52.3% |
| Cc1ccc2nc3cc([N+](=O)[O-])cc([N+](=O)[O-])c3cc2c1 | inconclusive [inhibitor, single point] |  |
| O=C(Cc1ccccc1)Nc1ccc(C(=O)NCc2ccccc2)cc1 |  | inactive: -15.8% |
| Cc1cc(S(=O)(=O)NCCCN2CCOCC2)ccc1F |  | inactive: 9.59% |
| CC(NC(=O)c1ccco1)C(=O)N(C)Cc1ccc(C(F)(F)F)cc1 (stereo not drawn) |  | inactive: 21.9% |
| COc1ccc(C(=O)N2CCOC2CNC(=O)C(=O)NCc2ccc3c(c2)OCO3)cc1 (stereo not drawn) | inconclusive [inhibitor, full curve, poor fit] |  |
| c1ccc2sc(NC3=NCN(C4CCCCC4)CN3)nc2c1 | inconclusive [inhibitor, full curve, poor fit] |  |
| Cc1ccc(/C=N/NC(=S)NCCc2ccccc2)s1 | active: 11.7 µM |  |
| COc1ccc(NS(=O)(=O)c2cc(NC(=O)c3ccc(=O)[nH]n3)ccc2N2CCOCC2)cc1 | inconclusive [inhibitor, single point] |  |
| CCn1c(-c2cc(-c3ccc(C)cc3)nc3ccccc23)n[nH]c1=S | inconclusive [inhibitor, single point] |  |
| CC(=O)N/N=C/c1ccc(OCCOc2ccc(Br)cc2)cc1 | inconclusive [inhibitor, single point] |  |
| CCC(C)NC(=O)c1ccc(CSCc2ccccc2Cl)o1 (stereo not drawn) | active: 7.38 µM |  |
| CCN(CC(=O)Nc1ccc(NC(C)=O)cc1)C(=O)/C=C/c1ccco1 |  | inactive: 12.7% |
| CCCOc1cc(C)c(Cl)cc1S(=O)(=O)N(CC)CC | inconclusive [inhibitor, single point] |  |
| CCOC(=O)c1ccccc1NC(=O)CN1C(=O)NC(C)(CCc2ccccc2)C1=O (stereo not drawn) | inconclusive [inhibitor, partial curve] |  |
| COc1ccccc1N=C1SC(C(=O)Nc2cccc(Cl)c2Cl)C(N)=C1C(N)=O (stereo not drawn) | inconclusive [inhibitor, partial curve, poor fit] |  |
| O=C(Nc1ccc(N2CCOCC2)c(Cl)c1)c1ccc(F)cc1 | inconclusive [inhibitor, partial curve] |  |
| Cc1ccc2cc3cc(C(=O)NC4CCCCC4)oc3nc2c1 | inconclusive [inhibitor, full curve] |  |
| OCCNCc1cccc(OCc2ccc(Cl)cc2)c1 | inconclusive [inhibitor, single point] |  |
| CCCn1c(N2CCC(Cc3ccccc3)CC2)nc2c1c(=O)[nH]c(=O)n2C | inconclusive [inhibitor, partial curve, poor fit] |  |
